Data reported in the supplement of paper PMC8183993.
Where “and” joins values, the source holds several entries; their conditions need not be identical. Equal entries are not always repeated. Structures can show the parent of a compound that is named as a salt. ± gives the standard deviation of the averaged measurements. Whole data set: some 3,200 compounds, median “nuclei count (viability) relative to DMSO” near 99, cut for the lowest 2% near 16. This is one part of the list.

System: U2OS
Assay: nuclei count (viability) relative to DMSO (% of DMSO); higher = more viable cells
Settings: 10 µM; 24 h
Experimental: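 Primary image-based screen in U2OS cells: compounds at 10 uM for 24 h, then a 1 h o-propargyl-puromycin (OPP) pulse, click labelling, and high-throughput microscopy. Mean cytoplasmic OPP intensity and nuclei count were normalised to DMSO wells within each plate (DMSO = 100) and averaged over triplicate plates.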

Row | SMILES | nuclei count
1 | NS(=O)(=O)c1cc2c(cc1Cl)NC(CC1CCCC1)NS2(=O)=O (stereo unspecified) [Cyclopenthiazide] | 108
2 | O=C(O)CCCCC1CCSS1 (racemic) [DL-?-Lipoic acid] | 106
3 | CC(C)(C)NCC(O)c1cc(O)cc(O)c1 (stereo unspecified) [Terbutaline hemisulfate] | 104
4 | CCOC(=O)[N-]c1c[n+](N2CCOCC2)no1 [Molsidomine] | 97.4
5 | CC[N+](CC)(CC)CCOc1cccc(OCC[N+](CC)(CC)CC)c1OCC[N+](CC)(CC)CC [Gallamine triethiodide] | 103
6 | C#C[C@]1(O)CC[C@H]2[C@@H]3CCC4=C(CCC(=O)C4)[C@H]3CC[C@@]21C [Norethynodrel] | 90
7 | C=C(c1ccc(C(=O)O)cc1)c1cc2c(cc1C)C(C)(C)CCC2(C)C [Bexarotene] | 103
8 | c1ccc(-c2n[nH]c3c2oc2ccccc23)cc1 | 100
9 | CC/C(=C(\c1ccccc1)c1ccc(OCCN(C)C)cc1)c1ccccc1 [Tamoxifen citrate] | 100 ± 4.3
10 | CC/C(=C(\c1ccccc1)c1ccc(OCCN(C)C)cc1)c1ccccc1 [Tamoxifen] | 91.7
11 | CCc1oc2ccccc2c1C(=O)c1cc(Br)c(O)c(Br)c1 [Benzbromarone] | 114
12 | c1ccc2oc(C3=NCCN3)cc2c1 [2-BFI hydrochloride] | 100
13 | NCc1ccc(S(N)(=O)=O)cc1 [Mafenide hydrochloride] | 101
14 | CN[C@@H]1[C@H](O[C@H]2[C@H](O[C@H]3[C@H](O)[C@@H](O)[C@H](NC(=N)N)[C@@H](O)[C@@H]3NC(=N)N)O[C@@H](C)[C@]2(O)CO)O[C@@H](CO)[C@H](O)[C@H]1O [Dihydrostreptomycin sulfate] | 99.9
15 | CCN(CCCOc1ccc2c(Nc3cc(CC(=O)Nc4cccc(F)c4)[nH]n3)ncnc2c1)CCOP(=O)(O)O [Barasertib (AZD1152-HQPA)] | 55.1
16 | O=c1[nH]nc(Sc2ncc([N+](=O)[O-])s2)n1-c1ccc2c(c1)OCCO2 | 6.42 ± 2.8
17 | Cc1ccccc1N=Nc1ccc(NC(=O)c2ccnn2C)c(C)c1 | 110
18 | NC(N)=NCCC[C@H](NC(=O)[C@@H]1CCCN1C(=O)[C@H](N)Cc1ccccc1)C(=O)CCl | 96.4
19 | CCN1CCC[C@H]1CNC(=O)c1c(O)c(Cl)cc(Cl)c1OC [Raclopride] | 99.1 ± 4.2
20 | CC[C@@H]([C@H](C)O)n1ncn(-c2ccc(N3CCN(c4ccc(OC[C@@H]5CO[C@@](Cn6cncn6)(c6ccc(F)cc6F)C5)cc4)CC3)cc2)c1=O [Posaconazole] | 93.3
21 | COC(=O)[C@]12CCC(C)(C)C[C@H]1[C@H]1C(=O)C=C3[C@@]4(C)C=C(C#N)C(=O)C(C)(C)[C@@H]4CC[C@@]3(C)[C@]1(C)CC2 [Bardoxolone Methyl] | 4.35
22 | CCCCC[C@H](O)/C=C/[C@H]1[C@H](O)CC(=O)[C@@H]1CCCCCCC(=O)O [Alprostadil] | 104 ± 2.1
23 | CCCCC[C@H](O)/C=C/[C@H]1[C@H](O)CC(=O)[C@@H]1CCCCCCC(=O)O [Alprostadil (Caverject)] | 94.3
24 | O=C(O)c1cccnc1C(=O)O [Quinolinic acid] | 102
25 | CC(C(=O)O)c1ccc(C(=O)c2cccs2)cc1 (stereo unspecified) [Suprofen] | 108
26 | CN1CCN(c2nc(C3=C(c4c[nH]c5ccccc45)C(=O)NC3=O)c3ccccc3n2)CC1 [Sotrastaurin (AEB071)] | 95.2 ± 3.4

Row | SMILES | nuclei count
27 | COc1cc2ncnc(Nc3ccc(F)c(Cl)c3)c2cc1OCCCN1CCOCC1 [Gefitinib (Iressa)] | 89.9
28 | COc1cc2ncnc(Nc3ccc(F)c(Cl)c3)c2cc1OCCCN1CCOCC1 [Iressa] | 100
29 | COc1cc2ncnc(Nc3ccc(F)c(Cl)c3)c2cc1OCCCN1CCOCC1 [Gefitinib] | 99.8
30 | CCOc1ccc(NC(C)=O)cc1 [Phenacetin] | 109
31 | CN1CCC[C@@H]1CCO[C@](C)(c1ccccc1)c1ccc(Cl)cc1 [Clemastine fumarate] | 92.9 ± 9.9
32 | [O-][S+](c1ccccc1)c1ccc2nnnn2n1 (stereo unspecified) | 32.8
33 | O=C(c1ccc(OCCCc2c[nH]cn2)cc1)C1CC1 [Ciproxifan] | 103
34 | CN1CCN(c2c(F)cc3c(=O)c(C(=O)O)cn4c3c2SCC4)CC1 [Rufloxacin] | 113
35 | CC(=O)N1CCN(C)CC1 [1-Acetyl-4-methylpiperazine hydrochloride] | 97.8
36 | COc1ccc(C2CC(c3ccccc3)=NN2c2ccc(S(N)(=O)=O)cc2)cc1 (stereo unspecified) | 97
37 | CCCC(=O)[O-].[Na+] [Sodium butyrate] | 89.2
38 | Cc1cc(Nc2cc(N3CCN(C)CC3)nc(/C=C/c3ccccc3)n2)n[nH]1 | 31.8
39 | COCCOc1ccc2c(c1)ncn2-c1ccc2cccc(N3CCC(N)CC3)c2n1 | 42.8 ± 3.7
40 | COC(=O)C1=C(C)NC(C)=C(C(=O)OCCN(C)Cc2ccccc2)C1c1cccc([N+](=O)[O-])c1 (stereo unspecified) [Nicardipine hydrochloride] | 109
41 | OC[C@H]1O[C@@H](c2ccc(Cl)c(Cc3ccc(O[C@H]4CCOC4)cc3)c2)[C@H](O)[C@@H](O)[C@@H]1O | 98.1
42 | CC1(C)CNc2cc(NC(=O)c3cccnc3NCc3ccncc3)ccc21 [Motesanib Diphosphate] | 101
43 | CC1(C)CCC(C)(C)c2cc(C(=O)Nc3ccc(C(=O)O)cc3)ccc21 | 106 and 105
44 | Oc1cc(O)c(Cl)cn1 [Gimeracil] | 97.3
45 | COC(=O)C1=C(C)NC(C)=C(C(=O)OCC(C)C)C1c1ccccc1[N+](=O)[O-] (stereo unspecified) [Nisoldipine] | 90
46 | COC(=O)C1=C(C)NC(C)=C(C(=O)OCC(C)C)C1c1ccccc1[N+](=O)[O-] (stereo unspecified) [Nisoldipine (Sular)] | 86.9
47 | CCCCCCCCCCCC1=C(O)C(=O)C=C(O)C1=O [Embelin] | 97.9
48 | CN(C)CCOC(c1ccc(Cl)cc1)c1ccccn1 (stereo unspecified) [Carbinoxamine maleate salt] | 104
49 | CCCCCCCCCCCCCCCC(=O)C(F)(F)F | 97.2
50 | O=C1CCc2ccc(OCCCCN3CCN(c4cccc(Cl)c4Cl)CC3)cc2N1 [Aripiprazole] | 103
51 | NC(=O)NC1NC(=O)NC1=O (stereo unspecified) [Allantoin] | 102
